Data from the supplement of paper PMC3724861.
The list shows a part of the results.

The sequences below were run on T1, Caupolican (Caup) homeodomain DNA-binding domain (assay: PBM E-score (8-mer, recovered from the published 9-mer minima) (E-score (dimensionless, -0.5 to 0.5)); Drosophila protein; higher = stronger relative binding preference, active = 0.31 or more).
T1 sequence: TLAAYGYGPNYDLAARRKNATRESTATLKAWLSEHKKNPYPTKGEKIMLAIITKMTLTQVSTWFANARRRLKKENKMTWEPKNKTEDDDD
In short: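 An enrichment score, with higher meaning stronger, expresses relative binding preference for each short DNA word. The protein used was Caup's homeodomain DNA-binding domain (residues 214-303), produced by in vitro transcription and translation and tested at 100 nM on custom-designed protein binding microarrays. The 8-mer values were recovered from published 9-mer scores, each equal to the lower of its two constituent 8-mer scores.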

Row | Sequence | PBM E-score
1 | CAGGTTCG | inactive: -0.0239
2 | AGACTACA | inactive: 0.243
3 | AATCGTCT | inactive: -0.00532
4 | ATTTATGC | inactive: -0.0181
5 | GACAAAAC | inactive: 0.137
6 | CTAAGGAC | inactive: -0.0836
7 | TTAAGTAA | inactive: 0.0753
8 | ACTGATGG | inactive: 0.0233
9 | ACGGGCGA | ≥ -0.131
10 | ACGTAGTA | inactive: 0.0539
11 | AGTGCCAG | inactive: -0.146
12 | ACAGGTGC | inactive: 0.0923
13 | ATGTCATC | inactive: 0.306
14 | CACGAAGA | inactive: 0.0613
15 | CCGGTACA | inactive: 0.178
16 | CAACAGCC | inactive: -0.0148
17 | CACTCGCC | inactive: -0.169
18 | GGGCCTGA | inactive: -0.248
19 | AGGGCATG | inactive: 0.0665
20 | ACCGTGAA | inactive: -0.0279
21 | AGCCTACA | inactive: 0.0993
22 | CTTGCCGA | inactive: -0.0128
23 | ATAACCTA | inactive: 0.0723
24 | ATTAGCTC | inactive: 0.0259
25 | CCGCACCG | inactive: -0.0712

Row | Sequence | PBM E-score
26 | ACCTCAGC | inactive: -0.0755
27 | ATCTAGCC | inactive: -0.13
28 | ACATTGAA | inactive: 0.259
29 | CAGACTCG | inactive: -0.0201
30 | ACACGCTC | inactive: 0.248
31 | GGGGCGCA | inactive: -0.201
32 | AAGGAATG | inactive: 0.0264
33 | ATCTTCAA | inactive: 0.0619
34 | AATATGAG | inactive: 0.0796
35 | GACGAATA | inactive: 0.0347
36 | CGTACAGA | inactive: 0.142
37 | ATGGAAAT | inactive: 0.126
38 | GGGATACA | inactive: 0.229
39 | GGCAGCGA | inactive: -0.241
40 | ACCGAGGC | inactive: -0.133
41 | GGTCTCGA | inactive: -0.0505
42 | GACGGTCA | inactive: -0.173
43 | CTCCGGAC | inactive: -0.0485
44 | AACGCGCG | inactive: -0.0517
45 | CCACACAC | inactive: 0.0259
46 | AGAAATCA | inactive: -0.00877
47 | CCCCTAGA | inactive: -0.0794
48 | CTTGCTTC | inactive: 0.0842
49 | AGTTCATA | inactive: 0.0856
50 | GTCACAAC | inactive: 0.168

Row | Sequence | PBM E-score
51 | GCGAGGAC | inactive: -0.194
52 | CGACGGAA | inactive: 0.00015
53 | GCGCCTGA | inactive: -0.119
54 | CACTGGAC | inactive: -0.00881
55 | ATAGGGAT | ≥ 0.0224
56 | AAGCACCG | inactive: -0.0685
57 | ACTACTTA | inactive: 0.0929
58 | TCCCGGGA | inactive: -0.153
59 | CTCTGGAA | inactive: -0.12
60 | CCTCGGCA | inactive: -0.116
61 | ACAACAAA | active: 0.323
62 | AAACCGCG | ≥ 0.0459
63 | CGAGCAAA | inactive: 0.0137
64 | CCGAGATA | inactive: -0.0259
65 | CAGACGAA | inactive: 0.105
66 | CGCTTCGA | inactive: -0.147
67 | GGCCAGAA | inactive: -0.0915
68 | CAGCTACG | inactive: -0.101
69 | GTCATTAA | inactive: 0.205
70 | GACAGATA | ≥ 0.201
71 | AAATGAAC | inactive: 0.166
72 | CGCGGTCC | inactive: -0.269
73 | CATGCTTC | inactive: 0.0983
74 | GATCGCAA | inactive: 0.0769
75 | GGCAGTTA | inactive: -0.0401

Row | Sequence | PBM E-score
76 | CAACGGCA | inactive: -0.0152
77 | CCCGCAGC | inactive: -0.271
78 | CTATCTGC | inactive: -0.0723
79 | GGGAAATA | inactive: 0.0591
80 | GCCACGTA | inactive: -0.0264
81 | ACTTAGTG | inactive: 0.0348
82 | AGGCCATA | inactive: -0.0649
83 | ATCGATAC | inactive: 0.228
84 | AGGATAAC | inactive: 0.0584
85 | CCATCGAC | inactive: -0.149
86 | ATGGTAAC | inactive: 0.227
87 | TAGAAAAA | inactive: 0.0409
88 | GAACGTCC | inactive: 0.00472
89 | AACTATGA | inactive: 0.0863
90 | AGCCACGA | inactive: -0.0999
91 | CACCTGGG | inactive: -0.155
92 | AGTGATGG | inactive: 0.0548
93 | AGTTTACG | inactive: 0.0155
94 | AGTCTTAT | inactive: 0.0971
95 | GTTGGTTA | inactive: 0.163
96 | CCTAGCAG | inactive: -0.124
97 | CTACGCAA | inactive: -0.0565
98 | GAGCATCC | inactive: -0.0998
99 | CGCAATAC | inactive: 0.0451
100 | GTGTGGTA | inactive: 0.0835

Row | Sequence | PBM E-score
101 | GTGCTCGA | inactive: -0.0316
102 | AAACGCAA | inactive: 0.00551
103 | AGTGCAAC | inactive: 0.0396
104 | AACCAGAC | ≥ 0.173
105 | CCATCTGC | inactive: -0.0543
106 | GCCAAATA | inactive: -0.00793
107 | GCCGATCC | inactive: -0.152
108 | GTGGTGCA | inactive: -0.0503
109 | CCCCATCG | inactive: -0.203
110 | ATACGGCC | inactive: -0.0828
111 | CGGACATA | inactive: 0.223
112 | CGACTCCA | inactive: -0.0558
113 | GGTCGATA | inactive: -0.0421
114 | GAGATGAC | inactive: 0.0225
115 | TATTAGCA | ≥ 0.172
116 | GTCACCGA | inactive: 0.0281
117 | GGATAGTA | ≥ 0.172
118 | CTGATTAC | inactive: 0.231
119 | ACATGCAC | active: 0.393
120 | GACAGCCC | inactive: -0.0688
121 | CCGTAGGC | inactive: -0.231
122 | CTAGGGAA | inactive: -0.0555
123 | CTATTGGA | inactive: 0.00708
124 | CTCGACAC | inactive: 0.105
125 | AAGTCGGG | inactive: -0.103

Row | Sequence | PBM E-score
126 | CCCAGTGA | inactive: -0.0998
127 | GACTTTGA | inactive: -0.0255
128 | ATAATATC | inactive: 0.231
129 | CGTTGGTA | inactive: 0.202
130 | ACCGCCCG | inactive: -0.323
131 | CACATGTA | active: 0.42
132 | CCCAGTTA | inactive: -0.134
133 | AGTCTCAT | inactive: -0.00161
134 | CTGTATTA | inactive: 0.159
135 | GCGCAACC | inactive: -0.145
136 | CGCAACAC | inactive: 0.0463
137 | ATCTAAAG | inactive: 0.0121
138 | CTTAGGCC | inactive: -0.241
139 | CCGTTCAG | inactive: -0.0977
140 | AGTTGCCG | inactive: -0.0224
141 | CCTTTTCG | inactive: -0.0928
142 | ACGTCTAA | inactive: 0.002
143 | CGCTAGCC | inactive: -0.283
144 | CTCCTCAA | inactive: -0.164
145 | CCGATATA | inactive: 0.0359
146 | GTTCCCAA | inactive: -0.045
147 | CTCCCCAA | inactive: -0.0757
148 | AATTATTA | inactive: 0.214
149 | GGTCTAGA | inactive: -0.134
150 | CATTACGG | inactive: 0.00577

Row | Sequence | PBM E-score
151 | GCGCATAC | inactive: 0.0093
152 | CACGGTAA | inactive: 0.0544
153 | GGAACCAA | inactive: 0.0388
154 | GATCCCCC | inactive: -0.182
155 | AAGAGTGG | inactive: -0.0354
156 | GGATACTA | inactive: 0.0428
157 | GAACGTTA | inactive: -0.0679
158 | ACACAGGC | inactive: 0.0845
159 | GATGATGC | inactive: -0.061
160 | GTGCCATA | inactive: -0.0152
161 | GCTAAGCC | inactive: -0.227
162 | CCGCGTAG | inactive: -0.0732
163 | TAACGCAA | inactive: 0.0712
164 | CCGTCCAG | inactive: -0.245
165 | CAGATTAG | inactive: -0.0364
166 | TAACTTCA | inactive: 0.137
167 | AAAGAACA | inactive: 0.269
168 | CTGTTGTA | inactive: 0.273
169 | GGGAGCCC | inactive: -0.256
170 | AACATTTA | inactive: 0.275
171 | AGCCATGA | inactive: 0.00934
172 | AGCGGAAG | inactive: -0.161
173 | AGAGATAT | ≥ 0.084
174 | AGTGAAGA | inactive: -0.0882
175 | AATTTTCC | inactive: 0.0741

Row | Sequence | PBM E-score
176 | GAGTGCAC | inactive: -0.0329
177 | GACAACAA | active: 0.342
178 | GCCGGCGA | inactive: -0.275
179 | CCTATAAA | inactive: -0.0151
180 | CGGGAAAA | inactive: -0.0322
181 | AGCCGTAT | inactive: -0.0406
182 | GACCGGCC | inactive: -0.22
183 | ATTTTGCA | inactive: 0.0959
184 | CCAGTGCC | inactive: -0.15
185 | AAATTAGT | inactive: 0.154
186 | AAAAGCCG | inactive: -0.135
187 | ACGCAGCC | inactive: -0.145
188 | GAGGCAGA | inactive: -0.105
189 | CCCGCCGG | inactive: -0.246
190 | CAATTAAC | inactive: 0.152
191 | ACGTAGTC | inactive: 0.00594
192 | CCGCGCAC | inactive: -0.17
193 | AATCAAAA | inactive: 0.162
194 | CGTGAATC | inactive: 0.0702
195 | GGTCCAGA | inactive: -0.0264
196 | AGGGGTTC | inactive: -0.189
197 | AATTGGCA | inactive: 0.0986
198 | ATCTTGAC | inactive: -0.0426
199 | CCAGTACA | inactive: 0.3
200 | GAACGGTA | inactive: 0.0218

Row | Sequence | PBM E-score
201 | AGGTGGAC | inactive: -0.0643
202 | GTTCCGCA | inactive: 0.069
203 | GCGGCTAC | inactive: -0.0721
204 | CGTCTACC | inactive: -0.0699
205 | ACTGCCTG | inactive: -0.0684
206 | ACGTGAAT | inactive: 0.0518
207 | AACGTACG | inactive: 0.0611
208 | CGCTCACG | inactive: -0.159
209 | AAGTAGAT | inactive: 0.0681
210 | ACGATGCG | ≥ 0.0108
211 | AAACGTCC | inactive: -0.0263
212 | CCGCCCCG | inactive: -0.265
213 | CGTTTTCA | inactive: 0.0134
214 | GTGTTCGA | inactive: 0.236
215 | GCGAGCAC | inactive: -0.0716
216 | GCTCAAAC | inactive: 0.0081
217 | ATTATGAA | inactive: 0.169
218 | AGTCGCAT | inactive: 0.0361
219 | GCTTCACA | inactive: -0.019
220 | AATCTCAG | inactive: 0.0346
221 | ACTTCTTG | inactive: 0.0436
222 | CTGGTGGC | inactive: -0.213
223 | CGCTAGTA | inactive: 0.0576
